The values that follow come from PubChem BioAssay AID463173 (ICCB-Longwood Screening Facility, Harvard Medical School, 2010).

In all, about 52,000 compounds went through this assay and about 4,300 (8.3%) were called active. Cut-off read from the data, not from the text of the source: active = survival mostly below about 52% (no sharp cut-off); inactive = mostly above about 56%. This is one part of the list.

The assay relates to DeltatarO mutant. Nature of the assay: S. aureus survival, RN4220 and DeltatarO strains – OD600, teichoic acid synthesis inhibitors, primary screen (AID 463173). To be noted: S. aureus RN4220 wild type/DeltatarO growth, OD600, 18 h, active compounds read low, screened at 18.75 µg/mL (by protocol).
Regarding `COC(=O)c1ccn(-c2nc(-c3ccc(Cl)cc3)cc(C(F)(F)F)n2)n1`, the survival was active: 13%.

For the compound `O=C(CS(=O)(=O)c1cccc2nsnc12)N1CCN(c2ccccc2)CC1`, the survival was inactive: 105%.

For the compound `CCOc1ccc(CNCCSc2nnnn2C)cc1OC`, the survival was inactive: 65%.

For `Cc1ccc(-n2ncc3c(N4CCN(c5ccc(F)cc5)CC4)ncnc32)cc1`, the survival is inactive: 94%.

As to `COc1ccc2oc(-c3ccc(NC(=O)c4ccc(Cl)cc4Cl)cc3)nc2c1`, the survival is inactive: 62%.

As for `COc1ccc(CNC(=O)C(=O)Nc2cccc(C)c2C)cc1`, the survival is inactive: 61%.

As for `O=c1c(-c2cc(-c3ccccc3)nc3c2COc2ccccc2-3)coc2ccc(Cl)cc12`, the survival was inactive: 133%.

`COc1ccc(C)cc1NC(=O)c1c(C)nc2ccccn12`: the survival is inactive: 69%.

For `CC1CC(NNc2ccc(Br)cc2)NC(=S)N1` (configuration not stated), the survival was inactive: 91%.

Take `CCc1ccc(NC(=O)C2CCCN(c3nnc(C)c4c(C)n(-c5ccccc5)nc34)C2)cc1` (configuration not stated): the survival was inactive: 81%.

Consider `O=C(Nc1cc(Cl)ccc1Cl)c1cc(S(=O)(=O)N2CCc3ccccc3C2)ccc1F`, for which the survival is inactive: 88%.

As to `COc1cc(NC(=O)CCS(=O)(=O)c2ccc3c(c2)n(C)c(=O)c(=O)n3C)cc(OC)c1`, the survival is inactive: 88%.

`Cc1cccc(NC(=O)N2CCN3CCCCC3C2)c1C` (configuration not stated): the survival was inactive: 77%.

Turning to `COc1cccc(NC(=O)Cn2c(-c3nonc3N)nc3ccccc32)c1`, the survival was inactive: 78%.

Take `COc1ccccc1N1CCN(c2csc3ccccc3c2=O)CC1`: the survival is inactive: 67%.

As for `CCc1ccc(Sc2cc(C(=O)NCCCN3CCC(C)CC3)c3ccccc3n2)cc1`, the survival is inactive: 77%.

Regarding `N#CC(C#N)=C(C#N)c1cc2c([nH]1)CCCC2`, the survival is inactive: 81%.

`COC(=O)c1cc2oc3ccccc3c2n1Cc1ccccc1Cl`: the survival was inactive: 72%.

As to `CCOc1ccc(/C=C/c2nc(C#N)c(N3CCC(C)CC3)o2)cc1`, the survival is inactive: 98%.

With `COc1ccccc1CNC(=O)CCCCn1c(=O)c2ccccc2n(CC(=O)Nc2cccc(Cl)c2)c1=O`, the survival was inactive: 81%.

For `COCCNC(=O)CN1C(=O)COc2ccc(S(=O)(=O)N3CCCC3)cc21`, the survival is inactive: 124%.

As to `CCN(CC)CCOC(=O)c1ccc(NC(=O)c2cc3cc(OC)ccc3oc2=O)cc1`, the survival is inactive: 73%.

In the case of `CCOC(=O)N1CCc2c(sc3c2C(=O)NC(c2ccc(C(=O)OC)cc2)N3)C1` (configuration not stated), the survival was inactive: 64%.

As to `CCc1ccc(NC(=O)Cn2c(=O)n(CCCC(=O)NCCc3ccc(OC)c(OC)c3)c(=O)c3ccccc32)cc1`, the survival is inactive: 77%.

Consider `CC(C)C(=O)c1cn(CC(=O)N2CCCC2)c2ccccc12`, for which the survival is inactive: 90%.

Consider `CCOc1ccc(Sc2cc(C(=O)NCc3ccccc3Cl)c3ccccc3n2)cc1`, for which the survival is inactive: 95%.

With `Cc1ccc(CNS(=O)(=O)c2ccc3c(c2)CC(C)N3C(=O)C2CCC2)cc1` (configuration not stated), the survival is inactive: 69%.

As for `O=C(O)CC1SC(=O)N(c2ccccc2)C1=O` (configuration not stated), the survival is inactive: 95%.

As to `O=C(Cn1c(-c2cccs2)cc2ccccc21)N1CCN(c2ccc(F)cc2)CC1`, the survival is inactive: 85%.

Turning to `COC(=O)c1c(-c2cccs2)csc1NC(=O)c1ccc(C)cc1`, the survival is inactive: 74%.

Regarding `COc1ccccc1NC(=O)Cn1c(=O)n(CC2CCC(C(=O)NCCc3ccccc3)CC2)c(=O)c2ccccc21` (configuration not stated), the survival was inactive: 85%.

Turning to `CCOc1ccc(CNC(=O)C2CCN(C(=O)N3CC(CC)Oc4ccc(C)cc43)CC2)cc1OC` (configuration not stated), the survival is inactive: 77%.

As for `Cc1cc(NC(=O)c2cc(-c3ccc(Cl)c(Cl)c3)on2)n(-c2ccccc2)n1`, the survival was inactive: 63%.

As for `Cc1cc(Br)ccc1NC(=O)c1c(C)oc2ncnc(N3CCCCC3)c12`, the survival was inactive: 102%.

`Cc1ccccc1N1CC(c2nc3ccccc3n2Cc2ccc(Br)cc2)CC1=O` (configuration not stated): the survival was active: 25%.

`Cc1cc2oc3c(c(=O)c2cc1C)C(c1ccc(C(C)C)cc1)N(c1nc(C)c(C)s1)C3=O` (configuration not stated): the survival was inactive: 73%.

For `CCCNC(=O)C1CCN(c2nc3ccc(C)cc3[nH]2)CC1`, the survival was inactive: 81%.

With `CCCOc1ccc(CNC(=O)C2CCN(C(=O)c3sccc3-n3cccc3)CC2)cc1`, the survival was inactive: 79%.

For the compound `COc1ccc(-c2nc3ccccc3n3c(-c4ccc(OC)cc4)c4c(=O)n(C)c(=O)n(C)c4c23)cc1`, the survival was inactive: 84%.

As to `Cc1ccc(CNC(=O)CCCN2C(=O)CCn3nc(-c4cccn4C)cc32)cc1`, the survival is inactive: 120%.

In the case of `CCOC(=O)c1ccc2c(c1)N(Cc1ccc(F)cc1Cl)C(=O)c1ccccc1S2`, the survival is inactive: 80%.

For the compound `Cc1cnc(=O)[nH]c1SCC(=O)Nc1cc(C(F)(F)F)ccc1Cl`, the survival was inactive: 84%.

As for `c1ccc(CCn2nnnc2C(c2cccnc2)N2CCc3ccccc32)cc1` (configuration not stated), the survival is inactive: 82%.

Regarding `Cc1c(Cl)cccc1-n1nc(C)c2c(C)cc(=O)n(CC(=O)N3CCCc4ccccc43)c21`, the survival was inactive: 78%.

Consider `NC1=NC(c2cc(F)cc(F)c2)n2c(nc3ccccc32)N1` (configuration not stated), for which the survival was inactive: 95%.

As to `COc1ccc(C(C(=O)NCc2ccccc2)N(Cc2ccco2)C(=O)c2cnccn2)cc1` (configuration not stated), the survival is inactive: 71%.

`Cc1ccc(CNC(=O)CCc2c(C)nc3c4c(C)cc(C)nc4nn3c2C)cc1`: the survival is inactive: 87%.

For `Cc1ccc(Cl)cc1NC(=O)CC1Sc2ccccc2NC1=O` (configuration not stated), the survival is inactive: 93%.

Consider `CCN1CCN(c2cc(C)c3cc(NC(=O)/C=C/c4ccc(C)cc4)ccc3n2)CC1`, for which the survival was inactive: 52%.

With `COc1cccc(NC(=O)N(Cc2cn(C)c3ccccc23)C2CCCCCC2)c1`, the survival was active: -13%.

As to `Cc1cccc(C(=O)Nc2ccc(N3CCC(N4CCCCC4)CC3)c(C(=O)O)c2)c1`, the survival is inactive: 100%.

Consider `COc1cc(CNc2ccc3[nH]c(=O)[nH]c3c2)cc(Br)c1OCc1ccccc1F`, for which the survival is inactive: 68%.

Turning to `Cc1cccc(CN2CCN(CC(=O)Nc3c(C)cccc3C)S2(=O)=O)c1`, the survival was inactive: 130%.

In the case of `CC1CCCCN1C(=O)c1ccccc1NC(=O)c1ccco1` (configuration not stated), the survival is inactive: 101%.

For the compound `COCCNC(=O)CSc1nc(-c2ccccc2)[nH]c1-c1ccc(C)cc1`, the survival is inactive: 81%.

As to `Cc1ccc(C)n1-c1nnc(N2CCCC(C(=O)NCc3cccc(Br)c3)C2)s1` (configuration not stated), the survival was inactive: 98%.

`COCCCn1c(=O)c2sccc2n2c(CCCC(=O)Nc3cccc(C(F)(F)F)c3)nnc12`: the survival is inactive: 69%.
